# According to US20250026846A1 (JCR PHARMACEUTICALS, published 2025):
# T1: recombinant monkey TfR (r monkey TfR: Sino Biological Inc.), crab-eating monkey TfR extracellular region with … (crab-eating monkey (Macaca fascicularis))
# T1 construct: Bought from Sino Biological; also called r monkey TfR-ECD (Histag); not shown: histidine tag at the N-terminus
# T1 chain: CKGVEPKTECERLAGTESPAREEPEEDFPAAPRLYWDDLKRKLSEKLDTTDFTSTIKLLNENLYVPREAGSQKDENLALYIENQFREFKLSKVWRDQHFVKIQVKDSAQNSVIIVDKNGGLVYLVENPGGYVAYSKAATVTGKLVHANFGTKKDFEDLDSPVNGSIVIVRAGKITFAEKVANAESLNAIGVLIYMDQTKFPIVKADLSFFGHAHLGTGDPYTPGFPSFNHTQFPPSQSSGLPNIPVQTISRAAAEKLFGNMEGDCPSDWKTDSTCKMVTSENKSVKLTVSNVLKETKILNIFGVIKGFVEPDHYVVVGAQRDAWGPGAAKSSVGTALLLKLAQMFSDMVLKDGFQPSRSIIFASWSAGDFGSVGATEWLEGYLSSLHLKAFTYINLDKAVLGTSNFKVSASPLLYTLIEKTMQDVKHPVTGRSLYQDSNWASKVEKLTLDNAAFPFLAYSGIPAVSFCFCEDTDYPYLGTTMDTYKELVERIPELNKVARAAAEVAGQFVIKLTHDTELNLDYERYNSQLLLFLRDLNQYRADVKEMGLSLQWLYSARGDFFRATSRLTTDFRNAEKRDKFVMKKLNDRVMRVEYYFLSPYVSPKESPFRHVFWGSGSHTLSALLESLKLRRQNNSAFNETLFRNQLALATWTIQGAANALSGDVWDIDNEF
# B1: IgG4 IDUA (other)
# light: DIVMTQTPLSLSVTPGQPASISCRSSQSLVHSNGNTYLHWYLQKPGQSPQLLIYKVSNRFSGVPDRFSGSGSGTDFTLKISRVEAEDVGVYYCSQSTHVPWTFGQGTKVEIKRTVAAPSVFIFPPSDEQLKSGTASVVCLLNNFYPREAKVQWKVDNALQSGNSQESVTEQDSKDSTYSLSSTLTLSKADYEKHKVYACEVTHQGLSSPVTKSFNRGEC
# heavy: EVQLVQSGAEVKKPGESLKISCKGSGYSFMNYWLGWVRQMPGKGLEWMGDIYPGGDYPTYSEKFKVQVTISADKSISTAYLQLSSLKASDTAMYYCARSGNYDEVAYWGQGTLVTVSSASTKGPSVFPLAPCSRSTSESTAALGCLVKDYFPEPVTVSWNSGALTSGVHTFPAVLQSSGLYSLSSVVTVPSSSLGTKTYTCNVDHKPSNTKVDKRV[sequence of human IgG4 Fc with S228P L445P (EU numbers) omitted]GSAEAPHLVHVDAARALWPLRRFWRSTGFCPPLPHSQADQYVLSWDQQLNLAYVGAVPHRGIKQVRTHWLLELVTTRGSTGRGLSYNFTHLDGYLDLLRENQLLPGFELMGSASGHFTDFEDKQQVFEWKDLVSSLARRYIGRYGLAHVSKWNFETWNEPDHHDFDNVSMTMQGFLNYYDACSEGLRAASPALRLGGPGDSFHTPPRSPLSWGLLRHCHDGTNFFTGEAGVRLDYISLHRKGARSSISILEQEKVVAQQIRQLFPKFADTPIYNDEADPLVGWSLPQPWRADVTYAAMVVKVIAQHQNLLLANTTSAFPYALLSNDNAFLSYHPHPFAQRTLTARFQVNNTRPPHVQLLRKPVLTAMGLLALLDEEQLWAEVSQAGTVLDSNHTVGVLASAHRPQGPADAWRAAVLIYASDDTRAHPNRSVAVTLRLRGVPPGPGLVYVTRYLDNGLCSPDGEWRRLGRPVFPTAEQFRRMRAAEDPVAAAPRPLPAGGRLTLRPALRLPSLLLVHVCARPEKPPGQVTRLRALPLTQGQLVLVWSDEHVGSKCLWTYEIQFSQDGKAYTPVSRKPSTFNLFVFSPDTGAVSGSYRVRALDYWARPGPFSDPVPYLEVPVPRGPPSPGNP
# notes: also called IgG4 HC-IDUA
# B2: IgG4 GS20-IDUA (other)
# light: B1 light
# heavy: EVQLVQSGAEVKKPGESLKISCKGSGYSFMNYWLGWVRQMPGKGLEWMGDIYPGGDYPTYSEKFKVQVTISADKSISTAYLQLSSLKASDTAMYYCARSGNYDEVAYWGQGTLVTVSSASTKGPSVFPLAPCSRSTSESTAALGCLVKDYFPEPVTVSWNSGALTSGVHTFPAVLQSSGLYSLSSVVTVPSSSLGTKTYTCNVDHKPSNTKVDKRV[sequence of human IgG4 Fc with S228P L445P (EU numbers) omitted]GGGGSGGGGSGGGGSGGGGSGGGGSGGGGSGGGGSGGGGSGGGGSGGGGSGGGGSGGGGSGGGGSGGGGSGGGGSGGGGSGGGGSGGGGSGGGGSGGGGSAEAPHLVHVDAARALWPLRRFWRSTGFCPPLPHSQADQYVLSWDQQLNLAYVGAVPHRGIKQVRTHWLLELVTTRGSTGRGLSYNFTHLDGYLDLLRENQLLPGFELMGSASGHFTDFEDKQQVFEWKDLVSSLARRYIGRYGLAHVSKWNFETWNEPDHHDFDNVSMTMQGFLNYYDACSEGLRAASPALRLGGPGDSFHTPPRSPLSWGLLRHCHDGTNFFTGEAGVRLDYISLHRKGARSSISILEQEKVVAQQIRQLFPKFADTPIYNDEADPLVGWSLPQPWRADVTYAAMVVKVIAQHQNLLLANTTSAFPYALLSNDNAFLSYHPHPFAQRTLTARFQVNNTRPPHVQLLRKPVLTAMGLLALLDEEQLWAEVSQAGTVLDSNHTVGVLASAHRPQGPADAWRAAVLIYASDDTRAHPNRSVAVTLRLRGVPPGPGLVYVTRYLDNGLCSPDGEWRRLGRPVFPTAEQFRRMRAAEDPVAAAPRPLPAGGRLTLRPALRLPSLLLVHVCARPEKPPGQVTRLRALPLTQGQLVLVWSDEHVGSKCLWTYEIQFSQDGKAYTPVSRKPSTFNLFVFSPDTGAVSGSYRVRALDYWARPGPFSDPVPYLEVPVPRGPPSPGNP
# notes: also called IgG4 HC-GS20-IDUA
# B3: IgG4 PPT1 (other)
# light: B1 light
# heavy: EVQLVQSGAEVKKPGESLKISCKGSGYSFMNYWLGWVRQMPGKGLEWMGDIYPGGDYPTYSEKFKVQVTISADKSISTAYLQLSSLKASDTAMYYCARSGNYDEVAYWGQGTLVTVSSASTKGPSVFPLAPCSRSTSESTAALGCLVKDYFPEPVTVSWNSGALTSGVHTFPAVLQSSGLYSLSSVVTVPSSSLGTKTYTCNVDHKPSNTKVDKRV[sequence of human IgG4 Fc with S228P L445P (EU numbers) omitted]GSDPPAPLPLVIWHGMGDSCCNPLSMGAIKKMVEKKIPGIYVLSLEIGKTLMEDVENSFFLNVNSQVTTVCQALAKDPKLQQGYNAMGFSQGGQFLRAVAQRCPSPPMINLISVGGQHQGVFGLPRCPGESSHICDFIRKTLNAGAYSKVVQERLVQAEYWHDPIKEDVYRNHSIFLADINQERGINESYKKNLMALKKFVMVKFLNDSIVDPVDSEWFGFYRSGQAKETIPLQETSLYTQDRLGLKEMDNAGQLVFLATEGDHLQLSEEWFYAHIIPFLG
# notes: Antibody-enzyme fusion: heavy chain (IgG4) of antibody No. 3N, Gly-Ser, then hPPT-1; also called IgG4 HC-PPT1
# B4: IgG4 GS10-ARSA (other)
# light: B1 light
# heavy: EVQLVQSGAEVKKPGESLKISCKGSGYSFMNYWLGWVRQMPGKGLEWMGDIYPGGDYPTYSEKFKVQVTISADKSISTAYLQLSSLKASDTAMYYCARSGNYDEVAYWGQGTLVTVSSASTKGPSVFPLAPCSRSTSESTAALGCLVKDYFPEPVTVSWNSGALTSGVHTFPAVLQSSGLYSLSSVVTVPSSSLGTKTYTCNVDHKPSNTKVDKRV[sequence of human IgG4 Fc with S228P L445P (EU numbers) omitted]GGGGSGGGGSGGGGSGGGGSGGGGSGGGGSGGGGSGGGGSGGGGSGGGGSRPPNIVLIFADDLGYGDLGCYGHPSSTTPNLDQLAAGGLRFTDFYVPVSLCTPSRAALLTGRLPVRMGMYPGVLVPSSRGGLPLEEVTVAEVLAARGYLTGMAGKWHLGVGPEGAFLPPHQGFHRFLGIPYSHDQGPCQNLTCFPPATPCDGGCDQGLVPIPLLANLSVEAQPPWLPGLEARYMAFAHDLMADAQRQDRPFFLYYASHHTHYPQFSGQSFAERSGRGPFGDSLMELDAAVGTLMTAIGDLGLLEETLVIFTADNGPETMRMSRGGCSGLLRCGKGTTYEGGVREPALAFWPGHIAPGVTHELASSLDLLPTLAALAGAPLPNVTLDGFDLSPLLLGTGKSPRQSLFFYPSYPDEVRGVFAVRTGKYKAHFFTQGSAHSDTTADPACHASSSLTAHEPPLLYDLSKDPGENYNLLGGVAGATPEVLQALKQLQLLKAQLDAAVTFGPSQVARGEDPALQICCHPGCTPRPACCHCPDPHA
# notes: also called IgG4 HC-GS10-ARSA
# B5: IgG4 GS10-GBA (other)
# light: B1 light
# heavy: EVQLVQSGAEVKKPGESLKISCKGSGYSFMNYWLGWVRQMPGKGLEWMGDIYPGGDYPTYSEKFKVQVTISADKSISTAYLQLSSLKASDTAMYYCARSGNYDEVAYWGQGTLVTVSSASTKGPSVFPLAPCSRSTSESTAALGCLVKDYFPEPVTVSWNSGALTSGVHTFPAVLQSSGLYSLSSVVTVPSSSLGTKTYTCNVDHKPSNTKVDKRV[sequence of human IgG4 Fc with S228P L445P (EU numbers) omitted]GGGGSGGGGSGGGGSGGGGSGGGGSGGGGSGGGGSGGGGSGGGGSGGGGSARPCIPKSFGYSSVVCVCNATYCDSFDPPTFPALGTFSRYESTRSGRRMELSMGPIQANHTGTGLLLTLQPEQKFQKVKGFGGAMTDAAALNILALSPPAQNLLLKSYFSEEGIGYNIIRVPMASCDFSIRTYTYADTPDDFQLHNFSLPEEDTKLKIPLIHRALQLAQRPVSLLASPWTSPTWLKTNGAVNGKGSLKGQPGDIYHQTWARYFVKFLDAYAEHKLQFWAVTAENEPSAGLLSGYPFQCLGFTPEHQRDFIARDLGPTLANSTHHNVRLLMLDDQRLLLPHWAKVVLTDPEAAKYVHGIAVHWYLDFLAPAKATLGETHRLFPNTMLFASEACVGSKFWEQSVRLGSWDRGMQYSHSIITNLLYHVVGWTDWNLALNPEGGPNWVRNFVDSPIIVDITKDTFYKQPMFYHLGHFSKFIPEGSQRVGLVASQKNDLDAVALMHPDGSAVVVVLNRSSKDVPLTIKDPAVGFLETISPGYSIHTYLWRRQ
# notes: also called IgG4 HC-GS10-GBA
# Molecular target: T1, recombinant monkey TfR (r monkey TfR: …)
# Assay: BLI (Octet RED96), His-tagged TfR ECD on Ni-NTA sensor
Binder,Kd,koff,kon
B1,< 1 pM,< 1e-07 s⁻¹,561000 M⁻¹ s⁻¹
B2,< 1 pM,< 1e-07 s⁻¹,481000 M⁻¹ s⁻¹
B3,< 1 pM,< 1e-07 s⁻¹,307000 M⁻¹ s⁻¹
B4,< 1 pM,< 1e-07 s⁻¹,169000 M⁻¹ s⁻¹
B5,< 1 pM,< 1e-07 s⁻¹,449000 M⁻¹ s⁻¹

# Molecular target: T2, recombinant human TfR (r human TfR: Sino Biological Inc.), hTfR extracellular region with a histidine tag at … (human, UniProt P02786)
# T2 construct: Bought from Sino Biological; also called r human TfR-ECD (Histag); recombinant hTfR; not shown: histidine tag at the N-terminus
# Assay: as above
Binder,Kd,koff,kon
B1,< 1 pM,< 1e-07 s⁻¹,980000 M⁻¹ s⁻¹
B2,< 1 pM,< 1e-07 s⁻¹,924000 M⁻¹ s⁻¹
B3,< 1 pM,< 1e-07 s⁻¹,737000 M⁻¹ s⁻¹
B4,< 1 pM,< 1e-07 s⁻¹,460000 M⁻¹ s⁻¹
B5,< 1 pM,< 1e-07 s⁻¹,957000 M⁻¹ s⁻¹
